The results in this text go back to ChEMBL document CHEMBL4888484, “Replenishing the malaria drug discovery pipeline: Screening and hit evaluation of the MMV Hit Generation Library 1 (HGL1) against asexual blood stage Plasmodium falciparum ,using a nano luciferase reporter read-out” (2022).

Hit rate of the full screen: of about 150,000 compounds, about 540 (0.36%) showed an effect of 50% or more. The list shows a part of the results.

The assay concerns Plasmodium falciparum. The assay is described as follows: Primary screen in NF54 nanoGlo assay, in single point, at 2uM, 72h; a lower Z score goes with more inhibition. The assay is classed as functional, Erythrocyte. Conditions: timepoint 72 hour.
`Fc1cccc(-c2n[nH]cc2-c2nc3c(cnn3Cc3cccs3)[nH]2)c1`: the “% Inhibition” value is recorded as -11% and the Z score is recorded as 1.57.
For the compound `Cc1n[nH]c(C)c1CNC(=O)c1cc2c(s1)N(C)CCCC2`, the “% Inhibition” value is -9% and the Z score was determined as 1.32.
On the same counts, the results for `O=C(NCc1cccc(N2CCCC2)c1)[C@H]1CCC(=O)N(C2CCCCCC2)C1` are -12% and 1.38.
As to `COCc1ccc(C2CCCN2Cc2ncc(C(C)O)s2)o1` (stereo unspecified), the “% Inhibition” value is on record as -1% and the Z score is recorded as 0.09.
As to `Cc1ccsc1CN(C)C(=O)c1ccc(-n2cnnc2)nc1`, the “% Inhibition” value came out at 6% and the Z score is reported as -0.85.
As to `CCC(=O)N(CC)Cc1nn(-c2ccccc2)c2c1CN(Cc1cc(F)ccc1F)CC2`, the “% Inhibition” value is recorded as -9% and the Z score is given as 0.98.
For `Cc1c(NC(=O)N2CCC[C@H](CO)C2)cccc1-c1nncn1C`, in that order: -13% and 1.88.
`Cc1cc(S(=O)(=O)NC2CCCCC2)c(C)s1`: the “% Inhibition” value was 6% and the Z score is on record as -0.8.
For the compound `O=C(Nc1cc(-c2ccccc2)ns1)C1CCC1`, the “% Inhibition” value was determined as 10% and the Z score is recorded as -1.15.
For the compound `C[C@@H]1CN(c2ccc(Cl)c(C(=O)O)n2)C[C@]1(C)O`, the “% Inhibition” value is given as -6% and the Z score amounted to 1.22.
Regarding `COc1ccc(Cn2c(=O)c3ccnn3c3ccc(C(=O)NC4CCN(C)CC4)cc32)cc1`, the “% Inhibition” value stood at 22% and the Z score was -2.4.
Regarding `CC(C)(C)c1nc(CN2C(=O)NC3(CCCCC3)C2=O)no1`, the “% Inhibition” value was determined as 1% and the Z score is given as -0.21.
For `O=C(NCC1CCOCC1)c1ccc2c(c1)OCO2`, the “% Inhibition” value is listed as -4% and the Z score is listed as 0.68.
With `O=C(Nc1nccs1)c1cnc(-c2cccnc2)s1`, the “% Inhibition” value is on record as -1% and the Z score was determined as 0.14.
Consider `CC(C)c1nnc(CN(C(C)C)C2CCOCC2)o1`, for which the “% Inhibition” value is -7% and the Z score stood at 0.74.
Regarding `C[C@@H](CNS(=O)(=O)C1CC1)N1CCCCC1=O`, the “% Inhibition” value was -9% and the Z score amounted to 1.23.
Consider `Cc1cc(C)n([C@@H](C)CNC(=O)Cn2cccnc2=O)n1`, for which the “% Inhibition” value is -6% and the Z score worked out at 1.19.
For `CC(C)Oc1ccc(CNc2nc3ccncc3n(C(C)C)c2=O)cc1`, the “% Inhibition” value was -12% and the Z score is on record as 1.15.
On to `COc1ccc(-c2nc3c([nH]2)CCN(C(=O)c2cc(C)on2)C3)cn1`, for which the “% Inhibition” value is given as -2% and the Z score turned out to be 0.46.
With `O=C(Cc1ccc(Cl)cc1)Nc1nnn[nH]1`, the “% Inhibition” value is listed as 13% and the Z score was -1.61.
With `CC(C)c1nccc(NCC(=O)OC2CCCCC2)n1`, the “% Inhibition” value is given as -6% and the Z score was 0.77.
Turning to `Cc1oc(-c2ccoc2)nc1CN(CC1CC1)C[C@H]1CCCO1`, the “% Inhibition” value was determined as 12% and the Z score is listed as -1.55.
For `Cc1ccccc1C(CC(=O)NCC(C)C)c1cnc2n1C(C)CCC2` (stereo unspecified), the “% Inhibition” value turned out to be 4% and the Z score is given as -0.59.
For `CCN(CCO)C(=O)CCCC1CCCCC1`, in that order: 8% and -0.8.
For `O=C(NCCOC1CCCC1)N[C@H]1CCCc2ccc(F)cc21`, in that order: -7% and 1.04.
Take `COC1CCCC(c2nc(-c3cnc(C)nc3N)no2)C1` (stereo unspecified): the “% Inhibition” value is -9% and the Z score amounted to 1.44.
As to `Cc1cn2nc(-c3nc([C@H]4CCCN(C(=O)c5cccc(Cl)c5)C4)no3)cc2c(=O)[nH]1`, the “% Inhibition” value is on record as 10% and the Z score is -1.87.
On to `CCN1C(=O)Cc2cc(NC(=O)[C@@H]3CCCO3)ccc21`, for which the “% Inhibition” value was -14% and the Z score is listed as 1.56.
For `C[C@@H](CCCC(C)(C)O)Nc1nc(-c2ccccn2)nc2c1cnn2C`, the “% Inhibition” value was -7% and the Z score is 1.41.
For `C[C@@H](CCNC(=O)CC1CCN(S(=O)(=O)c2ccccc2)CC1)N1CCCCCC1`, the “% Inhibition” value was -6% and the Z score is given as 1.05.
Turning to `Cc1nn(C)c(C)c1C1OCCC1CNCc1cccs1` (stereo unspecified), the “% Inhibition” value is reported as -3% and the Z score came out at 0.36.
On the same counts, the results for `COc1ccc2c(=O)n(C[C@H]3COCCO3)ccc2c1OC` are -6% and 0.63.
`Cc1nccn1-c1ccnc(C(=O)N2CCN(C)C[C@@H]2C)c1`: the “% Inhibition” value worked out at 2% and the Z score is given as -0.15.
On to `CN1C(=O)N[C@@H]2CN(c3ncc(Cl)cc3Br)CC[C@@H]21`, for which the “% Inhibition” value was -14% and the Z score turned out to be 1.91.
As for `CN(Cc1ccccc1)[C@H]1CCCN(C(=O)c2ccc3c(c2)no[n+]3[O-])C1`, the “% Inhibition” value is -12% and the Z score is 1.66.
As for `Cn1nc(CC(C)(C)C)cc1NC(=O)c1ccc(N2CCCC2)nc1`, the “% Inhibition” value is listed as -15% and the Z score was determined as 2.2.
As to `Cc1nn(-c2ccc(F)cc2)c2nc(N3CCCN(C(=O)[C@H](C)c4ccccc4)CC3)sc12`, the “% Inhibition” value is -15% and the Z score was 1.67.
Turning to `O=C(CCc1cccc(Cl)c1)N1CC[C@H](Oc2cccnn2)C1`, the “% Inhibition” value was -13% and the Z score was found to be 1.54.
On the same counts, the results for `CN(C)S(=O)(=O)c1ccc(C(=O)N2Cc3cncnc3C2)cc1` are -5% and 0.7.
Turning to `COc1ccccc1C(NC(=O)N1CCCC1CCO)c1ccccc1Cl` (stereo unspecified), the “% Inhibition” value is -2% and the Z score worked out at 0.49.
Consider `Cc1n[nH]cc1CNc1cnc2ccccc2c1`, for which the “% Inhibition” value is recorded as 1% and the Z score was -0.16.
As for `Cn1nccc1CNCc1ccc(Oc2ccccc2)o1`, the “% Inhibition” value is -8% and the Z score came to 1.02.
As to `CS(=O)(=O)NCCC(=O)N[C@H]1CC[C@@H](C(=O)NCc2ccccc2F)C1`, the “% Inhibition” value is given as -6% and the Z score was found to be 0.81.

The % Inhibition is the drop in the measured response relative to a control, in per cent.
